Experimental data taken from the supplement of paper PMC4466236.
Over roughly 33,000 sequences, “E-score (dimensionless, -0.5 to 0.5)” has its median near -0.058; the highest 2% begin near 0.35. The list shows a part of the results.

Tested on: MvaT
Assay: PBM 8-mer E-score (mean of HK and ME arrays) (E-score (dimensionless, -0.5 to 0.5)); higher = stronger relative binding preference; most listed sequences are background and not binding sites
How it was run: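 Full-length P. aeruginosa MvaT carrying an N-terminal glutathione S-transferase tag was tested by protein binding microarray following a previously described protocol. Two universal double-stranded 60-mer arrays, ME and HK, were used, each with a constant 25-mer primer region and a variable 35-mer region covering all 8-mers. The rank-based E-score is the mean of the two arrays, parsed with a custom script. Its range runs from -0.5 to 0.5 for each 8-mer.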

Sequence	PBM 8-mer E-score
AACACCGT	-0.00703
CTCTCACC	-0.137
ACAGCCCT	-0.193
CGACATCG	-0.131
GTTATCTA	0.15
CGTGTCGA	-0.181
GCAATAAA	0.214
AATATACG	0.331
AGCCTACC	-0.129
CAGGCAAC	0.0351
CATAACTC	0.211
CGCATATC	0.093
CAGGCTAC	-0.205
CTGGTCAC	-0.219
GCCCCAGA	-0.188
CCACACCC	-0.0379
CATGATCG	-0.131
TACTCCCA	0.0718
ATAAATTC	0.309
AACAAGGT	0.00606
AAGTCTAC	0.033
CCGCACTC	-0.254
AAGCATAT	0.177
AACCTTCA	-0.118
CGGCTAGA	-0.141

Sequence	PBM 8-mer E-score
ACCGGACA	-0.188
CAAAGCCC	-0.279
AGGAGTTG	0.01
ACGTGGAC	-0.0763
AACACTTC	0.105
CCCCGCGC	-0.219
GCCCGGGA	-0.177
ACCACCCT	-0.0852
CTATGGGC	-0.116
ATCGGCAC	-0.14
GGCCTTCA	-0.202
AAATGGAG	-0.0705
CACGTATG	-0.0815
CGGAATCA	-0.0777
GCTTGTCA	-0.157
CTCCCACA	-0.175
CGTACCGC	-0.262
ACACGGGA	-0.209
AACCGACA	0.108
CAATTTGG	0.0733
AGTTAATC	0.169
AGTCAACG	-0.095
ATGGAACG	-0.0827
GAAAACAC	0.0574
ATCCAGAC	-0.0115

Sequence	PBM 8-mer E-score
GCACCAAA	0.0418
CTTAGTAC	0.202
AGAGGTGA	-0.197
ACGCCCTA	-0.0861
AGCCGTGA	-0.057
ACAGTTAA	0.299
AGTTGCGG	0.203
ATTAGGAC	0.0658
TCTTACAA	0.129
CAACGAAA	0.0978
ACGGGAGG	-0.255
GTTAATCA	0.183
CCAAGTTC	0.0376
GTGTTCCA	-0.00277
CGGCCCTA	-0.203
GCCGCTCA	-0.105
GTAAACTA	0.233
GCACCAGC	-0.17
ACCCTCAG	-0.135
GCGAGCGA	-0.0777
AATGTGGC	0.0102
AAGATACT	0.157
ATCGCATG	-0.0639
ATAATGTG	0.268
ACGACAGC	-0.215

Sequence	PBM 8-mer E-score
AATAGATT	0.251
CGATTAAG	0.0954
CACCCTAG	-0.0575
CGTATAAG	0.147
ATCTGACG	-0.0841
GCACTTCA	-0.102
CCTCGAAC	-0.0311
CTCTCGGA	-0.147
TCTGAAAA	0.0184
CATATAAA	0.365
GAGCCACC	-0.174
ATGCAAAA	0.0909
CATCACCG	-0.262
CGGATCTC	-0.121
CCCATCCG	-0.148
CATTATGC	0.191
CCCATATA	0.196
GGGACACA	-0.103
AGTGAAAC	0.102
GAGTTACA	0.104
ATATTCTC	0.286
CATATGAC	0.101
ATTTCTTG	0.0491
ACAAGGTC	-0.0848
ATCCATCC	-0.15

Sequence	PBM 8-mer E-score
GACGCAAC	-0.061
AAGTCCAT	-0.0121
GTAAGCCA	-0.174
CATCATGC	-0.12
AAGCGGAA	-0.021
GCGGAGAA	-0.176
TGTTATAA	0.437
AATGGACA	0.0887
ATTCACGG	-0.07
AGCTAGTG	-0.0269
GTTAAGAA	-0.103
CCTCGTGA	-0.253
AACCCAAT	0.0936
CAACCCAC	-0.0308
CCCTGTAC	-0.157
CCGACAAA	0.0087
CCGAGAAG	-0.244
AGTTCACG	0.0778
CCTGGCGC	-0.207
CAACTCCC	-0.128
CGCTTCGC	-0.241
AAGTTCAC	0.229
ATAGTGTC	0.193
CGGTGAGC	-0.261
CCTGTCTA	-0.122

Sequence	PBM 8-mer E-score
CGCAAGTA	0.195
AACCGAAC	0.0615
CCGCTCGA	-0.0617
ACAATGGC	0.0275
GTACTGAA	-0.0172
CTGGCCGA	-0.205
CTGGCAGC	-0.221
ACGCGTCC	-0.0682
AGCATTTA	0.274
AGACTTGC	-0.117
CGGATCCC	-0.162
GACCCGAA	-0.11
CCTAAGGC	-0.273
ACGTCCCG	-0.241
GATAGGCC	-0.175
GATTACCC	-0.034
CAAAATCG	0.105
ACCGCCAT	0.00133
AAGCCCAC	-0.27
CTTCGCCA	-0.192
CAATCATG	0.0178
ACCATGCA	-0.00695
GATTCGCA	-0.0801
CAATCATC	-0.174
GCGAGACA	-0.0902

Sequence	PBM 8-mer E-score
AGTTCTGG	0.0672
CACACGCC	-0.111
AGGCGCAT	-0.197
AGTCACGG	-0.187
CTAATTCC	0.121
GTCTTCTA	0.00399
CGCTTTGC	-0.133
AGAAAGGG	-0.151
GGCTAATA	0.194
CAAGCGCG	-0.203
CACCTAAA	0.022
AAGCAGTA	0.0353
CATGGTCA	-0.171
GCGTAGCC	-0.313
ATCGAGAA	0.0884
AGGAGGTG	-0.269
ACAAGCTG	-0.114
CGAGATCC	-0.0821
GTACGCAA	-0.0291
CTGAGGGA	-0.124
GCAGTTTA	0.0494
CTAGCAGA	0.0121
